About 1,100 (0.3%) of roughly 370,000 compounds were called active. Not shown: some 1% with an inconclusive outcome. Calls come from the whole dose curve; as a rule, active = well fitted activation curve with a large enough effect; inconclusive = small, poorly fitted or top-dose-only effect; inactive = flat fitted curve, though single readings scatter. Only a part is listed here, and it is no random draw. A structure can be active in one record and inactive in another.
% is set by controls: 0 for no effect and ±100 for the full control effect; potency is the fitted concentration of half-maximal effect.

UniProt Q9HBX9, sequence (Q9HBX9 whole entry, looked up): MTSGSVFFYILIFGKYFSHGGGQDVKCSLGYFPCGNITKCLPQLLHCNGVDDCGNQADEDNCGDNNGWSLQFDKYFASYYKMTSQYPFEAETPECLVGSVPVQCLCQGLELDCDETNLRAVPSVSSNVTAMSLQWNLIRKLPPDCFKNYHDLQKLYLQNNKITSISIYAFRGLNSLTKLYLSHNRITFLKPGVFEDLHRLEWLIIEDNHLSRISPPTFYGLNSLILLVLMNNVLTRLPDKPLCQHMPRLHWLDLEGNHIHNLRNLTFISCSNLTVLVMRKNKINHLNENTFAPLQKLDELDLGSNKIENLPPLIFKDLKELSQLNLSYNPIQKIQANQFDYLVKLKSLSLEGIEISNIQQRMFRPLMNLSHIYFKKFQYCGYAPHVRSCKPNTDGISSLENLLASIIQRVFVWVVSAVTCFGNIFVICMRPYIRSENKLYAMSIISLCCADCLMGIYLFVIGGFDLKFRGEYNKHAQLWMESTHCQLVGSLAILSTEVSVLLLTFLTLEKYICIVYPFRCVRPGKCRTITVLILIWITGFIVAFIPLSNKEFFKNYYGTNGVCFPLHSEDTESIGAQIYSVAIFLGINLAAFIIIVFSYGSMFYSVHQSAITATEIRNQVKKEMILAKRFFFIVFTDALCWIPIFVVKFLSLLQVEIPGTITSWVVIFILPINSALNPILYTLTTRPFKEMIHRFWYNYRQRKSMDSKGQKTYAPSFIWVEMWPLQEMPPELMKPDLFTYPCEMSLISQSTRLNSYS

In the test the target is Relaxin receptor 1 (Homo sapiens) (UniProt Q9HBX9). Kind of test: qHTS Assay for Agonists of the Relaxin Receptor RXFP1. Note: nearly all actives have a fitted effect of over 60% in size. The following applies: HEK293T-RXFP1 cAMP TR-FRET, 30 min; series mostly up to 57.5 µM; activation: at the top concentration. An excerpt:
NIH Chemical Genomics Center [NCGC] NIH Molecular Libraries Probe Production Centers Network [MLPCN] MLPCN Grant: R03 MH085705-01A1 Assay Submitter (PI): Alexander Agoulnik NCGC Assay Overview: The relaxin hormone is involved in the variety of biological functions in normal tissues and diseases. The role of relaxin is well-established in female reproduction and parturition, mammary gland and endometrial development, maintenance of myometrial quiescence during pregnancy. Relaxin signaling through its G protein-coupled receptor (GPCR) RXFP1 results in ECM remodeling through regulation of collagen deposition, cell invasiveness, proliferation and overall tissue homeostasis. […] Recombinant human relaxin (rhRlx) is currently being tested in clinical trials as a protective agent in congestive heart failure, in treating severe preeclampsia, and as an anti-fibrotic agent in systemic sclerosis. Upon relaxin binding RXFP1 activation leads to the activation of adenylate cyclase (AC) via Gs. cAMP will activate PKA, which phosphorylates many signaling proteins. Thus, detection of cAMP increase is an easy and reliable indication of relaxin receptor activation. To screen for agonists of the relaxin receptor, a HEK293T cell line stably transfected with RXFP1 was used. RXFP1 activation was assayed by changes in cAMP levels as detected with a time-resolved fluorescence energy transfer (TR-FRET) cAMP detection kit.
NCGC Assay Protocol Summary: This is a cell-based assay for cAMP second messenger response to screen for agonists of the RXFP1 receptor. The assay was conducted in the presence of a PDE4 inhibitor (Ro 20174). The cells were lysed and the cAMP levels were measured with a TR-FRET cAMP kit. Presence of cAMP in the cell lysate disrupts binding between the cryptate-labeled anti-cAMP and d2-labeled cAMP pair, leading to a decrease in the TR-FRET signal. Data were normalized to the controls for basal activity (buffer only) and 100% activity (29 nM porcine relaxin). The EC50 values were determined from concentration-response data modeled with the standard Hill equation 1536-well assay protocol for the HEK293 RXFP1 cAMP assay: (1) Add 3 ul HEK293 RXFP1 cell culture. 2000 cells/well in DMEM/F12, 10% FBS, 1x Pen/Strep (dispensed offline with MultiDrop Combi). (2) Incubate 16-24 hr at 37C, 5% CO2. (3) Add 1 ul 400uM Ro20174 in DPBS, 0.05% BSA, 0.005% Tween 20. (3) Add 23 nl compounds in DMSO solution. Final concentration was 0.5 - 58 uM. (4) Incubate 30 min at 37C, 5% CO2. (5) Add 1 ul cAMP-d2 in lysis buffer (HTRF cAMP HiRange kit, CisBio). (6) Add 1 ul anti-cAMP antibody-cryptate in lysis buffer (HTRF cAMP HiRange kit, CisBio). (7) Incubate 30 min at room temperature. (6) Detect the assay plate in a ViewLux plate reader (PerkinElmer) with Ex=320 nm, Em1=615 nm and Em2=665 nm. Keywords: relaxin, RXFP1, RXFP2, G-protein coupled receptor, cAMP, agonist, high throughput screening, MLSMR, MLSCN, NIH Roadmap, qHTS and NCGC
A general note: In qHTS, concentration-response curves come from the screen itself.
Consider `C=C(C)C(=O)Nc1ccc(NC(C)C)cc1`, for which the “activation” value is inactive: -32.7%.

As for `COc1cc(SSc2cc(OC)cc([N+](=O)[O-])c2N)c(N)c([N+](=O)[O-])c1`, the “activation” value is inactive: -44.7%.

`CCOC(=O)N1CCN(C(=O)CSc2ccc3nnc(-c4cccnc4)n3n2)CC1`: the Potency was active: 14.1 µM.

With `Cc1cccc(-c2nc3c4c(-c5ccccc5)c(-c5ccccc5)oc4ncn3n2)c1`, the “activation” value is inactive: -46.1%.

Turning to `Cc1cc(C)c(NC(=O)Cn2cnc3c(oc4ccccc43)c2=O)c(C)c1`, the “activation” value was inactive: -0.287%.

As for `CSc1c(C#N)c(N)nc2sc(C(=O)c3ccccc3)c(N)c12`, the “activation” value is inactive: -49%.

As for `CC(C)C(=O)N1CCC2(CC1)Oc1ccc(F)cc1C(=O)C21CC(c2ccc(Cl)cc2)=NO1` (stereo not drawn), the “activation” value was inactive: 0%.

As to `Cc1ccc(NC(=O)Cn2cc(C(=O)C3CC3)c3ccccc32)c(C)c1`, the “activation” value was inactive: -2.98%.

With `CN(C)c1ccc(-c2nc3cc(N)ccc3o2)cc1`, the Potency is active: 28.2 µM.

On to `CN1C=CC(=CC=C2C=CC(=O)C=C2)C=C1`, for which the “activation” value is inactive: -37.5%.

Regarding `COc1cc(/C=N/NC(=O)Cn2cnc3c2c(=O)n(C)c(=O)n3C)ccc1O`, the Potency was active: 15.8 µM.

For the compound `COc1ccc(C(=O)Nc2ccc3oc(-c4ccc5ccccc5c4)nc3c2)cc1Br`, the “activation” value is inactive: -33.3%.

`CCOc1ccc(CCNC(=O)CCCn2c(=O)c3cccn3c3cccnc32)cc1OCC`: the “activation” value was inactive: 24.4%.

As for `Nc1nc(Cl)nc2c1ncn2C1CC(O)C(CO)O1` (stereo not drawn), the “activation” value is inactive: 12%.

As to `C=CCOc1cccc(C2/C(=C(\O)c3ccc4c(c3)OCCO4)C(=O)C(=O)N2CCN2CCOCC2)c1` (stereo not drawn), the Potency is active: 25.1 µM.

Take `COc1ccc(CCn2c(=N)c(C(=O)NCC3CCCO3)cc3c(=O)n4cccc(C)c4nc32)cc1` (stereo not drawn): the Potency was active: 17.8 µM.

In the case of `O=C(N/N=C/c1ccc2nccnc2c1)c1ccc(Br)cc1`, the “activation” value is inactive: -166%.

Regarding `Cc1cccc(C(=O)Nc2nnc(S(=O)(=O)N3CCC(C)CC3)s2)c1`, the “activation” value was inactive: -1.11%.

With `CNS(=O)(=O)c1ccc(NC(=O)c2nc3nc(C)cc(C(F)F)n3n2)cc1`, the “activation” value was inactive: -0.0508%.

For the compound `CCCCNC(=O)Nc1ccc2c(c1)N(C)C(=O)c1ccccc1S2`, the “activation” value is inactive: -1.82%.

On to `CC(C)CN(c1ccccc1)S(=O)(=O)c1nnc(NC(=O)c2ccco2)s1`, for which the “activation” value was inactive: 0.352%.

As for `COCCN1CCn2c(nc3cc(Nc4nnc(C)c5ccccc45)ccc32)C1`, the “activation” value was inactive: -39.4%.

On to `CCc1cc2cc3c(cc2nc1SCC(=O)Nc1cc(C)on1)OCO3`, for which the Potency was active: 28.2 µM.

In the case of `COc1ccc(OC)c(-c2cc(C(=O)NCc3ccc(Cl)cc3)no2)c1`, the “activation” value is inactive: 11.7%.

For `Cc1ccc(SCC(=O)Nc2ccc3oc(-c4ccc(F)cc4)nc3c2)cc1`, the “activation” value is inactive: -37.3%.

Consider `COc1ccc(-n2c(=O)c3ccc(C(=O)NCc4ccc(C)cc4)cc3n(CC(=O)Nc3cccc(F)c3)c2=O)cc1`, for which the Potency is active: 31.6 µM.

For the compound `CCn1c(=O)c2cc(C(=O)Nc3cccc(C(C)=O)c3)sc2c2ccccc21`, the “activation” value is inactive: -35.8%.

Consider `Cc1ccc(-c2nc(NC(=O)CSc3cc(C)c4ccccc4n3)ns2)cc1`, for which the “activation” value was inactive: 8.57%.

Turning to `CN(C)CCNC(=O)Cn1c(=O)c2cccn2c2ccc(F)cc21`, the “activation” value was inactive: 0.412%.

For the compound `O=[N+]([O-])c1cccc(CSc2nnc3ccccn23)c1`, the Potency is active: 25.1 µM.

Regarding `CN1c2ccc(C=O)c3c(C=O)ccc(c23)N(C)C1(C)C`, the “activation” value was inactive: -66.2%.

With `Cc1ccc(-c2cc(C(=O)NCc3cnn(C)c3)c3cc(Br)ccc3n2)cc1`, the “activation” value is inactive: 23.2%.

Turning to `CNc1nc(SC)n(C)c(=O)c1N=O`, the “activation” value was inactive: -46.3%.

As to `CNC(=O)[C@H]1O[C@@H](n2cnc3c(NCc4cccc(I)c4)ncnc32)[C@H](O)[C@@H]1O`, the Potency is active: 15.8 µM.

As to `CC(=O)Oc1ccc2oc(-c3ccccc3)c(C(N)=O)c2c1`, the “activation” value was inactive: -31.7%.

Consider `Nc1c(Cl)ncnc1N/N=C/c1ccc(O)cc1`, for which the “activation” value is inactive: -45.6%.

In the case of `Nc1ncnc2c1ncn2C1O[C@H](CO)[C@@H](O)[C@@H]1O` (stereo partly drawn), the “activation” value was inactive: -0.0761%.

Consider `CCc1nonc1NC(=O)c1oc2ccc(Br)cc2c1C`, for which the “activation” value is inactive: 12.9%.

Regarding `Cc1cc(NC(=O)CSc2ncnc3c2cnn3-c2cccc(Cl)c2)no1`, the Potency is active: 6.31 µM.

Turning to `O=C(COc1ccccc1Cl)Nc1ccc2oc(-c3ccccc3F)nc2c1`, the “activation” value was inactive: -65.5%.

For the compound `CCC(=O)Nc1ccc(NC(=O)CSc2nc3c(c(=O)n(C)c(=O)n3C)n2CC)cc1`, the Potency is active: 15.8 µM.

Regarding `O=C(Nc1nnc(S(=O)(=O)N2CCCCC2)s1)c1ccccc1Br`, the “activation” value is inactive: -1.82%.

Consider `CSc1cc(-c2ccc(Cl)cc2)n(Cc2ccccc2)c(=O)c1C#N`, for which the Potency is active: 22.4 µM.

For the compound `Cc1nc(-c2cc(C#N)c(=O)[nH]c2C)cs1`, the “activation” value was inactive: -32.1%.

Regarding `CC(C)NC[C@H](O)c1ccc(O)c(O)c1`, the “activation” value is inactive: 22.9%.

For the compound `Cc1ccc(-n2nc(C)c3c(C)c(CCC(=O)NC(C)c4ccccc4)c(C)nc32)cc1` (stereo not drawn), the “activation” value is inactive: -0.768%.

With `Cc1ccc(NC(=O)c2oc3ccc(S(=O)(=O)N4CCOCC4)cc3c2C)c(C)c1`, the “activation” value was inactive: 10.9%.

As to `O=C(NNc1c2ccccc2nc2ccccc12)C(O)c1ccccc1` (stereo not drawn), the “activation” value is inactive: -37.6%.

On to `Cc1ccc(C)c2c1cc(C)c1nnc(SCC(=O)Nc3cccc(C(=O)O)c3)n12`, for which the “activation” value is inactive: -46.3%.

On to `Cc1cccc(C(=O)N/N=C2\CS(=O)(=O)N(C)c3ccsc32)c1`, for which the “activation” value is inactive: -34.2%.

For `Cn1c2c(c(=O)n3ncnc13)CCCC2`, the Potency is active: 22.4 µM.

With `CCOc1ccc(S(=O)(=O)c2c[nH]c3ccccc3c2=O)cc1`, the “activation” value is inactive: 2.51%.

As for `CCOc1ccccc1OCC(=O)NNC(=O)Cn1cnc2c1c(=O)n(C)c(=O)n2C`, the Potency was active: 22.4 µM.

`CC(=O)CSc1nc(-c2cccs2)c(C#N)c(=O)[nH]1`: the Potency is active: 14.1 µM.

`COc1ccc(N2CC(O)=C(c3nc(-c4ccccc4)cs3)C2=N)cc1`: the “activation” value was inactive: -39.5%.

As to `CCOC(=O)C1=C(c2ccccc2)O/C(=C(\C(=O)OC)C(F)(F)F)S1`, the “activation” value was inactive: -0.116%.

Consider `COc1ccc(OC)c(CNC(=O)CCn2c(=O)c3cccn3c3ccc(F)cc32)c1`, for which the “activation” value was inactive: -8.03%.

As for `COc1ccc2c3c([nH]c2c1)C1CC2C(CC(O)C(OC)C2CO)CN1CC3` (stereo not drawn), the “activation” value was inactive: -38.4%.

With `CCCCNc1ccc(C(CC(N)=O)NC(=O)c2ccccc2)cc1[N+](=O)[O-]` (stereo not drawn), the “activation” value was inactive: -33.8%.

With `CN(CCO)S(=O)(=O)c1ccc2c(c1)C(=NN)c1cc(S(=O)(=O)N(C)CCO)ccc1-2`, the “activation” value was inactive: -30%.

For the compound `O=S(=O)(c1ccc2nc(N3CCN(c4ccccc4F)CC3)ccc2c1)N1CCCCC1`, the “activation” value is inactive: 21.7%.

Regarding `COc1ccccc1N1CCN(C(=O)CSc2ncnc3c2cnn3-c2ccc(C)c(C)c2)CC1`, the “activation” value is inactive: -41.5%.

For the compound `O=C(C1=C(O)C(=O)N(CCc2ccccc2)C1c1ccncc1)c1cc2ccccc2o1` (stereo not drawn), the Potency was active: 14.1 µM.

Values taken from PubChem BioAssay AID2676 (National Center for Advancing Translational Sciences (NCATS), 2010).
